Data reported in the supplement of paper PMC4466236.
Over roughly 33,000 sequences, “E-score (dimensionless, -0.5 to 0.5)” has its median near -0.058; the highest 2% begin near 0.35. The list shows a part of the results.

Tested on: MvaT
Assay: PBM 8-mer E-score (mean of HK and ME arrays) (E-score (dimensionless, -0.5 to 0.5)); higher = stronger relative binding preference; most listed sequences are background and not binding sites
Procedure: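 Protein binding microarray: GST-tagged full-length MvaT (P. aeruginosa PAO1) bound to two universal double-stranded 60-mer arrays (ME and HK), each with a constant 25-mer primer and a variable 35-mer region covering all 8-mers. The 8-mer E-score (rank-based, range -0.5 to 0.5, >0.45 = specific binding) is the mean of the two arrays.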

| Sequence | PBM 8-mer E-score |
| --- | --- |
| ATTCTCTC | -0.0442 |
| TCGATGAA | -0.143 |
| CCGAGCAG | -0.247 |
| AACACCAG | 0.0698 |
| ATTAACCA | 0.211 |
| AACGAGGT | -0.0616 |
| GTGTTTTA | 0.259 |
| CCTCCGGA | -0.237 |
| TCAGCAGA | -0.00787 |
| AGTACACT | 0.155 |
| GTTCCGAA | -0.0947 |
| TAGGGGGA | -0.178 |
| AACTGGTA | 0.109 |
| TTTCAAAA | 0.232 |
| CCCCGATC | -0.2 |
| ACGAGGCT | -0.135 |
| CTAATGGA | -0.106 |
| CTATATTC | 0.204 |
| GGGCATGA | -0.171 |
| ACCTAACC | 0.0823 |
| CCAATCTC | -0.00864 |
| AAATCAAG | 0.171 |
| ACATGACA | -0.00327 |
| CCAAATAA | 0.204 |
| GTATCTTA | 0.194 |

| Sequence | PBM 8-mer E-score |
| --- | --- |
| ATGGTATG | -0.168 |
| CCAGGTGA | -0.0789 |
| ACCGCTTC | -0.244 |
| AGGGGGAC | -0.284 |
| GAGACGAA | -0.109 |
| GCGTCTCC | -0.28 |
| CTTCGTTC | -0.18 |
| CGAGACCC | -0.121 |
| CGTGTTCC | -0.108 |
| ATACGGTA | 0.0899 |
| ATACCACA | 0.141 |
| GCGGTAGC | -0.198 |
| GAGTAGGC | -0.275 |
| CACCTGGC | -0.212 |
| AGGTGCCA | -0.202 |
| CTTGATGC | -0.171 |
| AGATGGAG | -0.037 |
| ATAATGAT | 0.275 |
| GAAAAAAC | -0.0442 |
| CTTTCTCA | -0.0126 |
| AAGAACTT | 0.206 |
| ACCCAACC | -0.0143 |
| TCGGCAGA | -0.145 |
| GACTGTAA | 0.117 |
| GGAGCCCA | -0.203 |

| Sequence | PBM 8-mer E-score |
| --- | --- |
| AGAGCTGG | -0.147 |
| GGGGCCAA | -0.225 |
| GTAGTTAA | 0.283 |
| ACTTAGGA | 0.0667 |
| GCCTTTGA | -0.218 |
| CAGACGCG | -0.17 |
| AGTAGATG | 0.117 |
| CAGGCCAC | -0.199 |
| AGCTCCGA | -0.199 |
| CGGGCCCG | -0.215 |
| CCGCTAAG | -0.0317 |
| AGCTTGGC | -0.246 |
| ACTCATTG | 0.13 |
| AGCACGCG | -0.00877 |
| ACCGGGAA | -0.109 |
| GGGAGTAA | -0.0232 |
| CTATTCAA | 0.153 |
| AGGGGTAC | -0.215 |
| GTGACACA | 0.0291 |
| CTAGGGCC | -0.0588 |
| CCGATCAC | -0.23 |
| AGGGCCAT | -0.241 |
| AGCCCTGC | -0.307 |
| GTTCGTCA | -0.00827 |
| CGTGGGGA | -0.179 |

| Sequence | PBM 8-mer E-score |
| --- | --- |
| TAAACCGA | 0.0847 |
| AGCCATGG | -0.159 |
| GCAGGTGA | -0.0889 |
| CTCATGTC | -0.187 |
| AACGGCTT | -0.0621 |
| CAGATGAG | -0.0435 |
| TACGGCTA | -0.116 |
| ATCGGTTC | -0.113 |
| AGCCTTCC | -0.326 |
| CAATATGA | 0.244 |
| CACCGCCG | -0.084 |
| AATCTCTA | 0.083 |
| CGTTGCAA | 0.00647 |
| ATACCCTA | 0.153 |
| CTGTATCC | -0.0396 |
| CAAGCTCG | -0.274 |
| CCGTTGGC | -0.32 |
| ATAAACGC | 0.181 |
| GCTAAGAC | -0.179 |
| GTAGCCCA | -0.0865 |
| AGCCTGGC | -0.222 |
| CGGAACGC | -0.135 |
| GCAGGGGA | -0.33 |
| AGTTTAAC | 0.244 |
| GATGCGGC | -0.23 |

| Sequence | PBM 8-mer E-score |
| --- | --- |
| CGAGACTA | 0.0742 |
| CGCTTGGC | -0.193 |
| CGGACCTC | -0.258 |
| GCTATAGA | -0.132 |
| CCGGAGTC | -0.19 |
| CACCCCTA | -0.204 |
| CTGCCTGC | -0.219 |
| AGTAGACC | -0.0279 |
| GGATACCA | -0.0481 |
| GATACCGA | 0.0372 |
| GAGAGTAC | -0.0129 |
| AAAGCCTC | -0.0957 |
| AGGGAGTC | -0.241 |
| AAGGTCGT | -0.0288 |
| TATGCCAA | -0.03 |
| CCGGTGAA | -0.0479 |
| CGGAGCTA | -0.286 |
| AGGTGGCA | -0.248 |
| AGTGGAGC | -0.186 |
| ATAAATCA | 0.295 |
| CCCTGCAC | -0.275 |
| GCATTAGA | -0.0404 |
| GCGCCGAC | -0.227 |
| CTACGGAA | -0.0295 |
| AACTTGAC | 0.245 |

| Sequence | PBM 8-mer E-score |
| --- | --- |
| AGGTGCTC | -0.273 |
| CCACTTAA | 0.0414 |
| ACAGTTGC | -0.0905 |
| ATTTACCA | 0.289 |
| CCGCTTCC | -0.31 |
| AGCCCCAC | -0.236 |
| AAACTCGC | 0.0798 |
| AAGAGATC | 0.0177 |
| CATCTACG | 0.015 |
| GCAGAGGA | -0.233 |
| GGGCTGGA | -0.198 |
| CGTTCAAG | -0.0745 |
| ACAGTGGC | -0.0224 |
| TACCTCGA | -0.0927 |
| CAGTAACG | 0.0226 |
| TCCCATAA | 0.0366 |
| AACACAGT | 0.00605 |
| CCAGTTAG | 0.177 |
| CTGCCCAG | -0.317 |
| CTGCTTAA | 0.142 |
| GGCTAGAC | -0.23 |
| CGGCAACG | -0.104 |
| CAGCTAAG | -0.132 |
| CTGAAGTA | 0.15 |
| ACAACGTG | -0.242 |

| Sequence | PBM 8-mer E-score |
| --- | --- |
| ATGGTTAG | 0.000154 |
| CTCCACAC | -0.0248 |
| GCAAATCC | -0.0337 |
| AGCATCCA | -0.137 |
| CGGTAATC | 0.00707 |
| CTATCCTA | 0.0416 |
| GCCGCCAC | -0.209 |
| CTGCAAAG | -0.035 |
| GGGGAGCA | -0.201 |
| AACCGGAG | -0.187 |
| GCCTGTTA | -0.0185 |
| AGATGAAG | -0.0948 |
| GGCAACCA | -0.0483 |
| AGGGGCTG | -0.257 |
| ATTTCTTC | 0.122 |
| ACTCATGG | -0.0547 |
| CCGTAGCC | -0.276 |
| ACTTACTG | 0.154 |
| CAATTGAC | 0.147 |
| CTCGAACA | 0.00851 |
| ACCGACCG | -0.125 |
| AGTTCTAC | 0.16 |
